In PubChem BioAssay AID1159614 (National Center for Advancing Translational Sciences (NCATS), 2016):
Screen size: about 45,000 compounds; about 65 (0.1%) were called active. Calls follow the shape of the dose curve; as a rule, active = well fitted activation curve with a large enough effect; inconclusive = small, poorly fitted or top-dose-only effect; inactive = no such curve, though single readings can be large or run the other way. Some of the results follow.

Biological target: Galactocerebrosidase (Homo sapiens) (UniProt P54803)
Experiment: A Novel Cell-Based Assay to Identify Small Molecules for B -Galactocerebrosidase; also: 0% is about no effect; nearly all actives have a fitted effect of over 65% in size
Settings: 145M-Twi-hGALC-G270D cells (Twitcher mouse brain line with human GALC G270D), HMU-beta-Gal fluorescence, 48 h; series mostly up to 57.5 µM; activation: at the top concentration
Procedure, shortened: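 Mutant human GALC (G270D), stably expressed in a Twitcher mouse brain cell line lacking endogenous GALC, is measured in live-treated cells via 6-hexadecanoylamino-4-methylumbelliferyl-β-galactoside hydrolysis (0.1 mM final, pH 5.2) with fluorescent detection.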

Sequence of UniProt P54803 (P54803 whole entry, looked up): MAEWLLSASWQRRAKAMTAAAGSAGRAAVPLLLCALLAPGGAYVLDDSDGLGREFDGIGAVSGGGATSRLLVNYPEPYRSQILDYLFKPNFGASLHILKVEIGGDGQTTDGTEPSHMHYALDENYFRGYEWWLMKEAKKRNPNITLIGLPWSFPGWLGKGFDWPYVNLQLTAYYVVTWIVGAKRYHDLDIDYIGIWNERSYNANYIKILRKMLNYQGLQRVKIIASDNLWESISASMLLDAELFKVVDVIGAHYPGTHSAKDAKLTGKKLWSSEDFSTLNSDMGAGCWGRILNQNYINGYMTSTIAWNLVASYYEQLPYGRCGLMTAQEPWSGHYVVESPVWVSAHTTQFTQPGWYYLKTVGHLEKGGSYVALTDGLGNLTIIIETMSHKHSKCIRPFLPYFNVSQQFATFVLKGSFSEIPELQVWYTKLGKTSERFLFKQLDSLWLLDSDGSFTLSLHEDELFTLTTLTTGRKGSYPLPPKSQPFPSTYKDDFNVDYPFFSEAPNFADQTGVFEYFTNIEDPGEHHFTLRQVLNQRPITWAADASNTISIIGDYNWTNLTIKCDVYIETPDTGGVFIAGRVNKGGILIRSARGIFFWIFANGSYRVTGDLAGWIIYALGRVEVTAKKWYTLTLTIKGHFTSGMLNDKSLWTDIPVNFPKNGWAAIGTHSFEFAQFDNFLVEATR

activation, inactive:
CCOc1ccc(N2C(=O)c3n[nH]c(-c4cccs4)c3C2c2cccc(F)c2)cc1 (configuration not stated) -11.4%
Cc1ccc(Cl)cc1-n1ncc2c(NCCCc3ccccc3)ncnc21 -36.3%
Cc1c(Nc2nc3ccccc3n3c(C)nnc23)cccc1C(=O)O -12%
CCOc1ccccc1CNC(=O)c1ccc2c(c1)nc1n2CCCCC1 -0.589%
CCN(CC)S(=O)(=O)c1ccc2c(c1)N(CC(=O)N1CCN(c3cccc(OC)c3)CC1)C(=O)CO2 -8.93%
CCc1ccc(NC(=O)c2ccc(F)c(S(=O)(=O)NCc3ccc(Cl)c(Cl)c3)c2)cc1 0.895%
CN(C)c1ccc(-c2nc(-c3ccco3)no2)cc1[N+](=O)[O-] -30.6%
Cc1ccc(-c2cc(C(=O)N(Cc3ccc(C(C)(C)C)cc3)Cc3ccco3)no2)cc1 -12.7%
COc1ccc(NC(=O)c2ccco2)cc1NC(=O)COc1ccc(Cl)c(C)c1 -7.64%
Cc1ccc(NC(=O)N2CC3CCCN3c3ccccc32)c(C)c1 (configuration not stated) -5.96%
Fc1ccc(-n2ncc3c(N4CCCCCC4)ncnc32)cc1 -6.62%
Cc1ccc(NS(=O)(=O)c2cc3[nH]c(=O)c(=O)[nH]c3cc2C)cc1Cl 7.81%
CCOc1ccc(C(=O)Nc2c(C(=O)N3CCN(c4ccccc4F)CC3)oc3ccccc23)cc1 -7.52%
CC(C)C(=O)NCC1(N(C)C)CCCCC1 3.61%
CCc1cccc(C)c1NC(=O)CCn1c(=O)c2cccn2c2ccccc21 3.38%
Cc1cc(N2CCN(c3cccc(C(F)(F)F)c3)CC2)n2nc(-c3ccccc3)nc2n1 -10.4%
CC(Oc1ccc(Br)cc1)C(=O)Nc1ncn[nH]1 (configuration not stated) -13.3%
Cc1nc(SC(C)C(=O)Nc2ccccc2Cl)cc(-c2ccccc2)n1 (configuration not stated) -8.55%
CCn1cc(C(=O)N2CCN(c3cc(C)ccc3C)CC2)c(=O)c2cc(S(=O)(=O)N3CCCCC3)ccc21 -17.6%
COc1ccc(N2CCN(Cc3cccn3-c3nnc(N4CCN(C5CCCCC5)CC4)s3)CC2)cc1 -15.4%
CCOc1ccc(-n2nc(CO)c(C(=O)NCc3cccs3)n2)cc1 2.54%
Cc1ccc([N+](=O)[O-])cc1S(=O)(=O)N1CCn2cccc2C1c1ccccc1 (configuration not stated) -18.5%
CCOc1ccccc1CNC(=O)Cn1cc2c(n1)-c1c(oc(C(=O)N3CCCC3)c1C)CC2 -6.26%
Cc1ccc(N2C(=O)N(Cc3cc(=O)n4ccccc4n3)c3ccccc3S2(=O)=O)cc1Cl -17.5%
Cc1ccc2nc(-c3ccc(Cl)c(NC(=O)COc4ccc(C(C)C)cc4)c3)oc2c1 -4.89%
COc1ccc(NC(=O)CCc2nnc3n(Cc4ccccc4Cl)c(=O)c4ccccc4n23)cc1 -2.12%
CC(N)C(=O)OC(C)(C)Cc1ccc(Cl)cc1 (configuration not stated) -3.97%
Cc1ccc(C)c(NC(=O)C2CCCN(S(=O)(=O)c3cn(C)cn3)C2)c1 (configuration not stated) 2.62%
CCOC(=O)CSc1nc2ccccc2c(=O)n1-c1cccc(C)c1 -3.61%
CSc1ccc(CCNC(=O)c2ccc(-c3nc(COc4ccc(C)cc4)c(C)o3)cc2)cc1 -20.9%
O=C(Cn1cc(S(=O)(=O)c2ccccc2)c(=O)c2cc3c(cc21)OCO3)Nc1ccc(Cl)cc1 -0.142%
O=C(CS(=O)(=O)c1cccc2nsnc12)N1CCN(c2cccc(C(F)(F)F)c2)CC1 -11.1%
Cc1ccc(S(=O)(=O)N2CCN(Cc3nc4ccc(C)cc4o3)CC2)cc1 13.4%
COc1ccc(Br)cc1CNC(=O)CCSCc1ccc(C)cc1 -32%
CCNc1cc(N2CCN(C3CCCCC3)CC2)c2noc3c2c1C(=O)c1ccccc1-3 -12.5%
O=C(O)Cc1sc(Nc2ccccc2)nc1-c1ccccc1 -1.31%
COc1ccc(S(=O)(=O)NCCS(=O)(=O)N2CCN(c3ccccc3)CC2)cc1C 18.4%
O=C(O)Cc1ccc(NC2(c3ccccc3)C(=O)c3ccccc3C2=O)cc1 -17.4%
COc1ccc(C(=O)Nc2ccccc2SCc2cc(=O)c3cccc(C)c3[nH]2)cc1 3.12%
COC(=O)c1ccccc1NC(=O)C1=C(C)C(=O)OC12CCCCCC2 5.41%
CCCSc1ncc(Cl)c(C(=O)NCc2ccc(OC)cc2)n1 -11%
CN(C)CCNC(=O)c1ccc2c(c1)N(Cc1ccccc1)C(=O)c1ccccc1S2(=O)=O -7.27%
COc1ccc(-c2cn3nc(N4CCCC(C(=O)Nc5cccc(Cl)c5C)C4)sc3n2)cc1 (configuration not stated) 2.24%
CCOCCn1ccc2c(OCC(=O)NCc3ccc(C)cc3)cccc2c1=O -6.75%
COc1cccc(-n2cc(C(=O)OCc3ccc(F)c(F)c3)c3ccccc3c2=O)c1 -5.43%
O=C(CN1C(=O)COc2ccc(S(=O)(=O)N3CCCC3)cc21)N1CCN(c2ccc(Cl)cc2)CC1 0.775%
Cc1ccc2c(c1)N(S(=O)(=O)c1cc(-c3onc(C)c3C)ccc1C)CCO2 -13.4%
COc1ccccc1CNC(=O)CCn1c(=O)c2ccccc2n(CC(=O)Nc2ccc(Br)cc2F)c1=O -2.06%
O=C(Cn1cc(C(=O)c2ccncc2)c(=O)c2cc(F)ccc21)Nc1ccc(Cl)cc1 -15.4%
O=C1c2[nH]nc(-c3ccccc3O)c2C(c2cccc(O)c2)N1Cc1ccncc1 (configuration not stated) -13.3%
COCCCNC(=O)N1[C@H](c2cccs2)[C@@H](C)C(=O)[C@@H](C)[C@@H]1c1cccs1 -4.86%
Cc1ccc(C(=O)Nc2nc3n(n2)C(c2ccc(F)cc2)C=C(c2ccccc2)N3)cc1 (configuration not stated) -9.77%
CCOC(=O)c1c(NC(=O)c2ccc(Br)cc2)sc2c1CCCC2 -22.8%
Cc1nn(C)c2c1c(C(F)(F)F)cc(=O)n2CC(=O)N1CCCCC1 -4.67%
O=C(O)c1cccc(Nc2ncnc3ccc(Br)cc23)c1 13.7%
CCOc1ccccc1-n1nnc(-c2nc(-c3ccccc3C)no2)c1C -12.2%
Cc1ccc2nc(-c3cccc(NC(=O)c4ccc(Br)o4)c3)oc2c1 -7.29%
COc1ccc(C(=O)Nc2nnc(S(=O)(=O)N3CCCc4ccccc43)s2)cc1 -10.7%
O=C(Nc1ccc(F)c(Cl)c1)C1CCN(S(=O)(=O)c2ccc3[nH]c(=O)ccc3c2)CC1 -18.4%
CCCCNc1nc2c(c(=O)n(C)c(=O)n2C)n1CC(O)COc1ccccc1C (configuration not stated) -18.5%
Cc1ccc2cc(CN(C)C(=O)c3cccc(Cl)c3)c(=O)[nH]c2c1 -15.4%
Cc1ccccc1NC(=O)c1cccc2c(=O)c3c([nH]c12)CCCC3 -14%
Cc1ccc(NC(=O)CSc2ccc3nnc(CCNS(=O)(=O)c4ccccc4)n3n2)cc1Cl -5.78%
Cc1ccc(Cl)cc1NC(=O)N1CCC(CN2CCCCCC2)CC1 -5.17%
CCCCC(=O)OCc1cc(=O)n2nc(C3CCCCC3)sc2n1 -5.43%
Cc1cccc(Nc2ccccc2C(=O)O)c1C -16.8%
CCC1CN(C(=O)Nc2cc(C)ccc2OC)c2cc(Cl)ccc2O1 (configuration not stated) -7%
Nc1ccc(/C=C/c2ccc(N)cc2S(=O)(=O)O)c(S(=O)(=O)O)c1 -9.96% [at 0.46 µM]
Cc1cccc(OCC(=O)Nc2c(C(=O)N3CCN(c4ccccc4F)CC3)oc3ccccc23)c1 -14.7%
CCOc1ccc(S(=O)(=O)Nc2ccc3oc(C)c(C(=O)OC(C)C)c3c2)cc1 -45.6%
Cc1cc(C)cc(OCC(=O)NC(Cc2c[nH]c3ccccc23)C(=O)O)c1 (configuration not stated) -5.01%
CCOc1cc(N)c(Cl)cc1C(=O)NCC1CN(Cc2ccc(F)cc2)CCO1 (configuration not stated) -14.4%
Cc1cc(C)n(-c2nc3ccccc3nc2Nc2ccc(Cl)c(Cl)c2)n1 -9.09%
COc1ccccc1NCc1cccn1-c1nnc(N2CCCCCC2)s1 -11.6%
COC(=O)c1ccc(NC(=O)CC2Nc3cc(C)c(C)cc3NC2=O)cc1 (configuration not stated) -16.4%
O=C(Nc1ccccc1)N(Cc1cccs1)c1ccc(F)cc1 -6.3%
CCOC(=O)c1ccc(N2C(=O)c3[nH]nc(-c4ccc(OC)cc4)c3C2c2ccccc2Cl)cc1 (configuration not stated) -11.2%
Cc1ccc(NC(=O)N2CCc3cc(S(=O)(=O)N4CCC(C)CC4)ccc32)cc1F -7.42%
CCCc1cc(=O)n2[nH]c(NC(=O)c3ccccc3Cl)nc2n1 -6.63%
CCOC(=O)N1CCN(C(=O)CN(c2cccc(Cl)c2)S(=O)(=O)c2ccccc2)CC1 -8.96%
CCCN(C(=O)c1cc2c(=O)oc3ccccc3c2s1)c1cccc(Cl)c1 -3.55%
Cc1ccc2onc(CC(=O)Nc3cccc(C(F)(F)F)c3)c2c1 -1.69%
COc1ccc(C2c3c(n(C)c4ccccc34)C(=O)N2CC(=O)Nc2cc(Cl)ccc2C)cc1 (configuration not stated) -0.907%
CCc1cccc(NS(=O)(=O)c2ccc3c(c2)n(C)c(=O)c(=O)n3C)c1 -3.9%
Cc1ccc(CNC(=O)CCCn2nc(C)c3c(C)n(-c4ccccc4)nc3c2=O)cc1 -10.4%
CCOC(=O)c1c(NC(=O)CSc2cn(CCNC(=O)c3ccc(OC)c(OC)c3)c3ccccc23)sc2c1CCCC2 -2.65%
C[n+]1ccccc1/C=N/O -14.4%
CCOC(=O)CSc1nc2cc3c(cc2c(=O)n1CCCC(=O)NCCc1ccc(OC)c(OC)c1)OCO3 -8.13%
CCOC(=O)c1sc(N2C(=O)c3oc4ccc(C)cc4c(=O)c3C2c2ccccc2F)nc1C (configuration not stated) -20%
COc1cccc(CNC(=O)c2cc(S(=O)(=O)N3CCCCCC3)cn2C)c1 9.21%
CC(=O)Nc1nonc1-c1nnc(SCC(=O)Nc2cccc(F)c2)n1-c1ccccc1 -7.65%
Cc1ccc(N2CCN(S(=O)(=O)c3cc(C(=O)Nc4cc(Cl)cc(Cl)c4)ccc3F)CC2C)cc1 (configuration not stated) -4.14%
CC(=O)c1ccc(NC(=O)C2Cc3ccccc3N2C(=O)c2ccccc2)cc1 (configuration not stated) -9.24%
Cc1ccc(CN2CCCn3nc(C(=O)NC(C)C)cc3C2=O)cc1 -12%
COC(=O)c1scc(-c2ccc(C)cc2)c1S(=O)(=O)Nc1ccc(F)cc1F -1.83%
CN1CCN(c2c(F)cc3c(=O)c(C(=O)O)cn4c3c2SCC4)CC1 -6.1%
Cc1nn(CC(=O)NCc2ccc(Cl)cc2)c(=O)c2cc3sccc3n12 -11.5%
